# Experimental data published in publication PMC4336329 (PLoS ONE, 2015).
# Among all 310,000 compounds or so, about 14,000 (4.5%) showed an effect of 50% or more. Effects have a minus sign here. The list shows a part of the results.
# Molecular target: human ether-à-go-go-related gene (hERG) potassium channel (human, UniProt Q12809)
# Assay: primary screen, population patch clamp on CHO cells stably expressing hERG
# 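Further: peak tail current of the secondary pulse compared with the same well before compound.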
# Sequence of human ether-à-go-go-related gene (hERG) potassium channel (Q12809 whole entry, looked up): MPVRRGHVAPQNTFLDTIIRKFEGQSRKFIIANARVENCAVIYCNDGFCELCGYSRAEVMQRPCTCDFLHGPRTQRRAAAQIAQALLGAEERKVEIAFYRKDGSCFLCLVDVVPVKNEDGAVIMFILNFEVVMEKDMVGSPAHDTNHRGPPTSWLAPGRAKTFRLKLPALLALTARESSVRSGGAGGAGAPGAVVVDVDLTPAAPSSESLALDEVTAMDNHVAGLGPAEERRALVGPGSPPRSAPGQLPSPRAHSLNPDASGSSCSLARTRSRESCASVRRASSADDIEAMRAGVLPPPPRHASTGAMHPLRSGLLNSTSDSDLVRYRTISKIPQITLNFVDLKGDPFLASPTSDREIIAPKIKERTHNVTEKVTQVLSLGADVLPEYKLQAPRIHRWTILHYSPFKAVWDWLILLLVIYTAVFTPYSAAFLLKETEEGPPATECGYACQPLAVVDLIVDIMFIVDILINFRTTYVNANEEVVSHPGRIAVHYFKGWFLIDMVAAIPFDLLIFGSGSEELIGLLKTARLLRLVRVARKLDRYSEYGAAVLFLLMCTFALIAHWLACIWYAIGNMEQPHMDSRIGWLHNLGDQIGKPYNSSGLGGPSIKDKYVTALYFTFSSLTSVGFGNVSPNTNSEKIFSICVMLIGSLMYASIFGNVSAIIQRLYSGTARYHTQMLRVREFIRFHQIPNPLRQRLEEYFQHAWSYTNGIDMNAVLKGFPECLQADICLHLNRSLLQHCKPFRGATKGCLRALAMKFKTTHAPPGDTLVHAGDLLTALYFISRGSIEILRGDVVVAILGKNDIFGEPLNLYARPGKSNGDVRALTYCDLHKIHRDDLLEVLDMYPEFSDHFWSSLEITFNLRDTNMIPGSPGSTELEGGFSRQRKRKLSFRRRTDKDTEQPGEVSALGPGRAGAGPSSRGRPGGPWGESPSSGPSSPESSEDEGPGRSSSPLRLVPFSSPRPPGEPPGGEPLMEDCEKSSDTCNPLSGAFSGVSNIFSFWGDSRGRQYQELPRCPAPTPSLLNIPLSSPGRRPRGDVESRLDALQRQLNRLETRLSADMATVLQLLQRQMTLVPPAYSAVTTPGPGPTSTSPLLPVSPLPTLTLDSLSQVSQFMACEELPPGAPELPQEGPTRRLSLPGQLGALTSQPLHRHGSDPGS
row,SMILES,"hERG current change (%, negative = inhibition) at 10uM [%]"
1,N#CCc1nc(CSc2nc3ccccc3o2)cs1,5.14
2,CCOc1ccc(C(=O)CCC(=O)N(CC)CC(=O)NCc2cccs2)cc1,-19.9
3,COCCNC(=S)N/N=C(\C)c1cccc(OC)c1,-27.8
4,CC(=O)c1ccc(C(=O)N2CCCC(CNC(=O)c3ccccc3Cl)C2)cc1 (centres unmarked),-2.66
5,COc1cccc(Cn2c(NCC(C)C)nc3c2c(=O)n(C)c(=O)n3C)c1,-10.2
6,O=C(CSc1nnc(-c2cccnc2)n1Cc1ccco1)c1ccc(Cl)cc1,-63.6
7,CC(C)c1ccc(NS(=O)(=O)c2cn(C)c(=O)n(C)c2=O)cc1,2.97
8,COc1ccc(-c2nc[nH]c2[N+](=O)[O-])cc1,9.19
9,CC(C)Cn1c(N)c(C(=O)CSc2nnc(-c3ccco3)n2C)c(=O)n(C)c1=O,-2.89
10,COC(=O)C1=C(c2cccc(C#N)c2)C[C@@H]2CC[C@H]1N2C(=O)NC(C)C,-11.7
11,Cc1c(C(=O)Nc2ccc(S(N)(=O)=O)cc2)oc2ccc(Cl)cc12,27.2
12,COCC(C)n1c(C)cc(C(=O)CSc2ccc(NC(C)=O)cc2)c1C (centres unmarked),-8.41
13,CCNC(=O)c1nc[nH]c1C(=O)NCC,1.23
14,Cc1ccc2c(c1)C1CN(C)CCC1N2C(=O)c1cn(-c2ccccc2)nc1-c1ccccc1 (centres unmarked),-65.6
15,NS(=O)(=O)c1ccc(NC(=O)CSc2nc(Nc3ccccc3)nc(N3CCOCC3)n2)cc1,21.3
16,O=C(C(=O)N1CCCC1)c1c[nH]c2ccccc12,7.14
17,CCN(c1cccc(C)c1)S(=O)(=O)c1ccc2c3c(cccc13)C(=O)N2,5.84
18,O=C(c1ccco1)N1CCN(C(c2coc3ccc(Cl)cc3c2=O)c2nnnn2C2CCCC2)CC1 (centres unmarked),-55.6
19,CCNC(=S)N1CCC(C(O)(c2ccccc2)c2ccccc2)CC1,11.8

row,SMILES,"hERG current change (%, negative = inhibition) at 10uM [%]"
1,O=C(CNC(=O)c1ccco1)OCC(=O)c1ccc(Cl)cc1,-0.204
2,O=C(Cn1cc(-c2nnnn2-c2ccc(Cl)cc2)c(=O)c2ccccc21)c1ccccc1,4.29
3,CC(=O)c1ccc(NC(=O)C(C)Sc2nnc(C3CCCCC3)o2)cc1 (centres unmarked),-4.84
4,O=C1CN(CC(=O)NC2CCCc3ccccc32)CCN1 (centres unmarked),-0.286
5,O=S1(=O)N=C(N/N=C/c2ccc(Br)o2)c2ccccc21,30.6
6,CCCN(CC(=O)Nc1ccccc1OC)C(=O)Cc1ccccc1F,-0.774
7,C[n+]1ccccc1C1CCCC/C1=N\Nc1ccc([N+](=O)[O-])cc1[N+](=O)[O-].[I-] (centres unmarked),-11.8
8,COc1ccc(/C=N/NC(=O)c2ccn[nH]2)cc1COc1ccc(F)cc1,15.8
9,O=C(O)C(c1ccccc1)C(c1ccccc1)c1ccccc1 (centres unmarked),12.4
10,O=C(O)C(Cc1ccccc1)n1c(=S)[nH]c2ccccc2c1=O (centres unmarked),20.9
11,CCN1CCc2c(OCC(=O)N3CCC(C)CC3)cccc2C1=O,11.4
12,Cc1cc[n+](Cc2ccccc2)c(N)c1.[Cl-],7.26
13,N#CCCN/N=C(/Cc1nc2ccccc2[nH]1)c1ccc(Cl)cc1,-16.6
14,Cc1ccc(S(=O)(=O)Nc2nc3ccc(S(C)(=O)=O)cc3s2)cc1,17.5
15,O=C(CCN1C(=O)/C(=C\c2ccc(F)cc2)SC1=S)Nc1ccc(O)cc1,17.2
16,CC(=O)C1=C(O)C(=O)N(Cc2ccccc2)C1c1ccco1 (centres unmarked),2.63
17,O=c1ccc2cc(S(=O)(=O)N3CCN(c4ccccc4F)CC3)ccc2[nH]1,-18.1
18,COCCNC(=O)c1ccc(-n2c(SCc3cc(F)ccc3F)nc3ccccc3c2=O)cc1,10.8
19,O=C(Nc1cccc(C(F)(F)F)c1)c1cc(S(=O)(=O)N2CCCCC2)ccc1N1CCOCC1,-8.02

row,SMILES,"hERG current change (%, negative = inhibition) at 10uM [%]"
1,O=C1C2CCN(CC2)[C@@H]1Cc1ccc2ccccc2c1O,-36.8
2,CC(=O)c1ccc(NC(=S)Nc2cccc(Cl)c2C)cc1,9.05
3,COC(=O)C(C)SC1=N/C(=C/c2ccc(-n3cncn3)cc2)C(=O)N1 (centres unmarked),-2.6
4,CCN(CC)CC(=O)c1c(N)n(Cc2ccccc2)c(=O)n(C)c1=O,-2.27
5,CC(C)c1nc(-c2ccc([N+](=O)[O-])cc2)cs1,1.87
6,CCCCC(CC)CNC(=O)CCCCn1c(=O)[nH]c2ccsc2c1=O (centres unmarked),1.39
7,CC(Oc1ccccc1)c1ccnn1S(C)(=O)=O (centres unmarked),9.36
8,COc1ccc(NC(=O)/C=C2\SC(=O)NC2=O)cc1,16.3
9,O=C(CCSc1ccc(Cl)cc1)N1CCCCCC1,-4.88
10,COc1ccc(C(CNS(=O)(=O)c2ccccc2)N2CCN(C)CC2)cc1 (centres unmarked),-35.7
11,CCOC(=O)CNC(=O)CN1C(=O)CC(c2ccco2)Sc2ccccc21 (centres unmarked),-43.2
12,Cc1nc(NC(=O)CSc2nc3ccccc3s2)sc1C(=O)N(C)C,-5.34
13,COc1ccc(/C=C2\OC(=O)c3c(OC)cccc32)cc1OC,11.9
14,CCOc1ccc(OCC)c(NC(=O)C2CCCN(S(=O)(=O)c3c(C)noc3C)C2)c1 (centres unmarked),0.212
15,O=C(CSc1cccc[n+]1[O-])N1CCCCCC1,9.81
16,COc1ccc(C2C(C(=O)Nc3cccc(C)n3)c3ccccc3C(=O)N2C)cc1OC (centres unmarked),-30.1
17,CC1=C(C)C(OCCCl)N(c2cc(O)c(Cl)cc2F)C1=O (centres unmarked),16.1
18,CN1CCN(Cc2ccc(N)cc2)CC1,7.24
